# Assay results taken from the supplement of paper PMC10126150.
# Values marked as one replicate rest on one cluster of the flow cell; about a third of the high ones do not repeat.
# Tested on: ATP
# Assay: switch fluorescence ratio, 500 uM ATP over buffer (Cy3 cluster intensity, sum of 5 cycles each) (fold (ratio)); higher = stronger signal-on switching upon ATP binding; sequences stand for … in TCGTCGGCAGCGTCAGATGTGTATAAGAGACAGTTTTTTTTTTTTTTTTTTTTTTTTT…TC
# Settings: aptamer strand: ATP DNA aptamer (quencher-CACCTGGGGGAGTATTGCGGAGGAAGG + anchor), 100 nM annealed; ATP concentration: 500 uM; one replicate
# In short: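 The quencher-labelled ATP aptamer, at 100 nM, was annealed to Cy3-labelled switching-strand clusters on a modified Illumina MiSeq flow-cell. The clusters were imaged in selection buffer, then after 15 min with 500 uM ATP at 22 °C, and this buffer/ATP cycle ran five times with NaOH stripping and re-annealing between runs. Per-cluster fluorescence ratios, summed target-cycle over summed buffer-cycle Cy3 intensity, were averaged per switch-domain sequence. Clusters outside 100-1000 RFU were excluded.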
# 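Note: ATP exposure 15 min at 22 °C before imaging.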
row,Sequence,switch fluorescence ratio
1,CTTAACCTGG,1.05
2,CTTAACTTCA,1.12
3,CTTAACTTTG,1.02
4,CTTAAGGAAG,0.989
5,CTTACACAGC,1.18
6,CTTACAGGCG,1.03
7,CTTACCAACT,1.11
8,CTTACCGTA,1.09
9,CTTACCTGTA,1.02
10,CTTACGCACT,1.31
11,CTTACTATCA,1.01
12,CTTACTTTTT,1
13,CTTAGACACG,0.92
14,CTTAGACGTT,0.979
15,CTTAGACTGT,1.03
16,CTTAGAGTGT,1.01
17,CTTAGCTAA,1.03
18,CTTAGGATTT,0.97
19,CTTAGGTACA,1.03
20,CTTAGTAAGA,1.01
21,CTTAGTATGG,0.939
22,CTTAGTGGT,1.01
23,CTTAGTTTCA,0.977
24,CTTATACCCC,1.13
25,CTTATGCAGA,1.06
26,CTTATGGGGA,1

row,Sequence,switch fluorescence ratio
1,CTTATGGGGC,0.922
2,CTTATGGTTC,1.03
3,CTTATTTCG,0.963
4,CTTCAAATAT,1.04
5,CTTCAAGGGG,1.03
6,CTTCAATGGG,1.08
7,CTTCACGCCC,1.24
8,CTTCACTGC,1.06
9,CTTCAGAGTG,0.963
10,CTTCATTTTT,0.995
11,CTTCCAAGAG,1.33
12,CTTCCACATT,1.3
13,CTTCCACCTT,1.13
14,CTTCCATGGT,1.05
15,CTTCCCATAT,1.38
16,CTTCCCCATA,1.06
17,CTTCCCCGTA,2.42
18,CTTCCCGATT,0.992
19,CTTCCTCGGA,2.91
20,CTTCCTGATT,1.01
21,CTTCGAGGTG,1.03
22,CTTCGCAG,4.32
23,CTTCGCCGAG,1.07
24,CTTCGGCTG,1.04
25,CTTCGGTACG,0.988
26,CTTCGGTCCT,1.07

row,Sequence,switch fluorescence ratio
1,CTTCTAAACC,1.06
2,CTTCTAATT,0.983
3,CTTCTATACT,1.2
4,CTTCTCAAGG,1
5,CTTCTCAGCA,1.88
6,CTTCTCGGCC,1.14
7,CTTCTTGGAT,1
8,CTTGAAGTCC,1.02
9,CTTGAATTAG,1.02
10,CTTGAATTTG,0.99
11,CTTGACAAGA,1
12,CTTGACACGG,0.975
13,CTTGACATTT,0.996
14,CTTGACCTAC,1.27
15,CTTGACTGGG,1.01
16,CTTGATAGGG,1.01
17,CTTGATTGTC,0.997
18,CTTGCAAAGC,1.34
19,CTTGCAGCTG,1
20,CTTGCATTGC,2.12
21,CTTGCCTGGT,1
22,CTTGCTAATT,1.01
23,CTTGCTCCGA,4.4
24,CTTGGACACT,1.04
25,CTTGGATCCA,0.978
26,CTTGGGAGGT,1.01

row,Sequence,switch fluorescence ratio
1,CTTGGGATGT,0.959
2,CTTGGGCAAG,1.01
3,CTTGGGCCGG,1.02
4,CTTGGGGCGT,0.992
5,CTTGGGGGG,0.968
6,CTTGGTATCA,0.97
7,CTTGGTGACT,1.02
8,CTTGTACCG,0.97
9,CTTGTACGGG,1
10,CTTGTACTT,0.991
11,CTTGTAGTTT,0.973
12,CTTGTATGGC,0.993
13,CTTGTCGTTT,1
14,CTTGTGCAGC,1.12
15,CTTGTGCGGC,0.95
16,CTTGTGTTTA,1.01
17,CTTGTTCGTT,0.982
18,CTTGTTGTT,0.979
19,CTTGTTTGTA,0.998
20,CTTTAACCAG,1
21,CTTTACAGAC,1.19
22,CTTTACAGTC,1.04
23,CTTTACATGT,1.03
24,CTTTACCGGC,0.979
25,CTTTCACTTC,1
26,CTTTCATAA,1.04

row,Sequence,switch fluorescence ratio
1,CTTTCCAGGT,1.04
2,CTTTCCTAGG,1.12
3,CTTTCTAGAC,1.02
4,CTTTGAGTTG,0.981
5,CTTTGATAGG,1.01
6,CTTTGGGGAA,1.04
7,CTTTGGTGGG,1.02
8,CTTTGTCGCG,0.92
9,CTTTTAGGCG,1.05
10,CTTTTATCGA,0.973
11,CTTTTCTACG,1.11
12,CTTTTCTTTT,1.02
13,CTTTTGGCTA,1.26
14,CTTTTGGTC,0.965
15,CTTTTTCCGT,1.12
16,CTTTTTGATA,0.987
17,GAAAAAACGG,1.04
18,GAAAAGAAAA,1.1
19,GAAAAGCTTG,1.04
20,GAAAATACCC,0.969
21,GAAAATCCAT,1.04
22,GAAAATCTAT,1.06
23,GAAAATGGAC,1.03
24,GAAAATTTCT,1
25,GAAACACGAT,1.05
26,GAAACACTCC,1.25

row,Sequence,switch fluorescence ratio
1,GAAACAGGCG,1.03
2,GAAACCAGCG,1.16
3,GAAACGAAAA,0.947
4,GAAACGTAT,1.19
5,GAAACTAGG,0.981
6,GAAACTGCCG,1.07
7,GAAAGAACAA,1.12
8,GAAAGAACTC,1.03
9,GAAAGAGTA,0.998
10,GAAAGATAAC,0.994
11,GAAAGCAAGG,1.18
12,GAAAGCATGG,1.03
13,GAAAGGATAC,1.05
14,GAAAGGATGG,0.993
15,GAAAGGTAGC,1.02
16,GAAAGGTCTG,1.02
17,GAAAGTTAAC,1.03
18,GAAATAAATG,0.93
19,GAAATATTAT,0.996
20,GAAATCAATC,1.22
21,GAAATCCGGG,0.985
22,GAAATGACCT,1.43
23,GAAATGCAAT,1.75
24,GAAATGCACG,0.947
25,GAAATGCTTA,1.02
26,GAAATGGGTA,0.99

row,Sequence,switch fluorescence ratio
1,GAAATGGTCT,0.991
2,GAAATTAGAG,0.966
3,GAAATTTGCG,0.975
4,GAAATTTTCA,1.03
5,GAACAAGCGT,0.973
6,GAACACACAT,1.22
7,GAACACCATT,1.01
8,GAACAGAGTT,0.977
9,GAACATAGT,0.921
10,GAACATTCTA,0.973
11,GAACCAGACG,1.11
12,GAACCAGTGG,1.05
13,GAACCCAGA,1.05
14,GAACCGAGCA,1.36
15,GAACCGTGTA,1.01
16,GAACGATGAT,1.07
17,GAACGCAAGG,1.39
18,GAACGCCCCG,1.09
19,GAACGGTTGG,1.01
20,GAACGTCCGA,1.07
21,GAACTAGGAT,1.06
22,GAACTAGTGT,1.03
23,GAACTCACGG,1.35
24,GAACTCTGTT,1.01
25,GAACTGAACC,1.32
26,GAACTGGGAC,1.02

row,Sequence,switch fluorescence ratio
1,GAACTTAGCC,1.05
2,GAACTTTTCC,1.45
3,GAAGAAGGGG,1.01
4,GAAGACTTTA,1.02
5,GAAGAGATGA,1.04
6,GAAGCCTTCT,1.06
7,GAAGCGATGG,3.93
8,GAAGCGTTCC,2.98
9,GAAGCTTTTA,1.03
10,GAAGGACGT,0.993
11,GAAGGCACGC,1.07
12,GAAGGCGCCA,0.966
13,GAAGGGCAAA,0.958
14,GAAGGTACTA,1.06
15,GAAGGTAGTT,1.01
16,GAAGGTCTC,0.977
17,GAAGTCAATT,1.11
18,GAAGTCATAG,1.08
19,GAAGTCCTTG,1.06
